Test results taken from the supplement of paper PMC4604168 (melanoma cell lines).
The other results are listed elsewhere or left out. Single values are uncertain, as repeats are few or missing.

Columns and labels:
Test in all cases: cell count relative to DMSO control; melanoma cells; higher = more viable cells
Conditions in all cases: library dose: standard library concentration; 72 h
[1] = system: G361
[2] = system: IPC-298
[3] = system: IST-MEL1
[4] = system: LB2518-MEL
[5] = system: LOXIMVI
[6] = system: MEL-HO
[7] = system: MZ2-MEL
[8] = system: MeWo
[9] = system: RPMI7951
[10] = system: RVH-421
[11] = system: SkMel28
[12] = system: SkMel2
[13] = system: SkMel30
[14] = system: SkMel5
[15] = system: UACC257
[16] = system: UACC62
[17] = system: WM115
[18] = system: WM1716
[19] = system: WM1745
[20] = system: WM3526
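Further: cells treated in 1,536-well plates, then fixed and DAPI-stained, with nuclei counted from automated high-throughput microscope images.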

Row | SMILES | cell count [1] | cell count [2] | cell count [3] | cell count [4] | cell count [5] | cell count [6] | cell count [7] | cell count [8] | cell count [9] | cell count [10] | cell count [11] | cell count [12] | cell count [13] | cell count [14] | cell count [15] | cell count [16] | cell count [17] | cell count [18] | cell count [19] | cell count [20]
1 | C[C@]1(c2nc3c(C(N)=O)cccc3[nH]2)CCCN1 [Veliparib] + O=C(Oc1ccc([N+](=O)[O-])cc1)N1CCC(C(O)(c2ccc3c(c2)OCO3)c2ccc3c(c2)OCO3)CC1 [JZL184] (first compound 7 µM, partner dose 5 µM) | 88.6% | 95.2% | 93.8% | 116% | 168% | 102% | 104% | 101% | 84.7% | 82.1% | 74.7% | 79.3% | 88.7% | 59.1% | 95.6% | 71% | 84.8% | 93.5% | 78.2% | 88.2%
2 | O=C(O)[C@@H]1[O][Sb](=[O])([O][Sb]2(=[O])[O][C@H]([C@H](O)CO)[C@H](O)[C@H](C(=O)O)[O]2)[O][C@H]([C@H](O)CO)[C@@H]1O (stereo not given in full) [stibogluconate] + C[As](C)SC[C@H](NC(=O)CC[C@H](N)C(=O)O)C(=O)NCC(=O)O [Darinaparsin] (first compound 10 µM, partner dose 2 µM) | 105% | 89.2% | 101% | 96.9% | 79.9% | 102% | 103% | 74.7% | 119% | 106% | 129% | 109% | 69.8% | 76.2% | 101% | 101% | 82.6% | 73.8% | 145% | 72%
3 | Cc1cc(Nc2cc(N3CCN(C)CC3)nc(/C=C/c3ccccc3)n2)n[nH]1 + C[As](C)SC[C@H](NC(=O)CC[C@H](N)C(=O)O)C(=O)NCC(=O)O [Darinaparsin] (first compound 0.2 µM, partner dose 2 µM) | 67.9% | 75.2% | 91.5% | 63.6% | 70.6% | 76.1% | 83.9% | 62.1% | 62.6% | 67.6% | 59% | 68.5% | 72.2% | 41.1% | 82.9% | 74% | 45.9% | 60.8% | 85.4% | 49.3%
4 | Nc1ncn([C@H]2C[C@H](O)[C@@H](CO)O2)c(=O)n1 [decitabine] + C[As](C)SC[C@H](NC(=O)CC[C@H](N)C(=O)O)C(=O)NCC(=O)O [Darinaparsin] (first compound 0.5 µM, partner dose 2 µM) | 67.6% | 65.5% | 68.2% | 107% | 70% | 86.3% | 85.2% | 77% | 104% | 93.7% | 104% | 107% | 110% | 69.1% | 102% | 85.9% | 77.9% | 72.2% | 106% | 89.2%
5 | Cc1cn(-c2cc(NC(=O)c3ccc(C)c(Nc4nccc(-c5cccnc5)n4)c3)cc(C(F)(F)F)c2)cn1 [nilotinib] + C[C@]12O[C@H](C[C@]1(O)CO)n1c3ccccc3c3c4c(c5c6ccccc6n2c5c31)CNC4=O [Lestaurtinib] (first compound 1 µM, partner dose 0.02 µM) | 62.4% | 66.4% | 100% | 55.3% | 112% | 82% | 84.7% | 65.4% | 63.4% | 65.9% | 68.4% | 88.2% | 74.3% | 50.6% | 100% | 68.1% | 69.6% | 98.3% | 57.4% | 50.1%
6 | COc1ccc(-c2ccc3c(N4CCOCC4)nc(N4C[C@@H](C)O[C@@H](C)C4)nc3n2)cc1CO + Cc1cc(SCc2sc(-c3ccc(C(F)(F)F)c(F)c3)nc2C)ccc1OCC(=O)O [GW0742] (first compound 0.1 µM, partner dose 10 µM) | 94.3% | 81.2% | 89.3% | 80.9% | 121% | 81.1% | 90.9% | 82.7% | 101% | 88.8% | 78.9% | 86.3% | 82.3% | 85.2% | 109% | 109% | 78.7% | 98.2% | 87.2% | 82.9%
7 | CS(=O)(=O)c1ccc(C(=O)Nc2ccc(Cl)c(-c3ccccn3)c2)c(Cl)c1 [vismodegib] + N.N.[Cl][Pt][Cl] [cisplatin] (first compound 5 µM, partner dose 8 µM) | 95.1% | 95.5% | 93.3% | 109% | 76% | 83.4% | 107% | 106% | 120% | 84% | 87.2% | 140% | 94% | 96.8% | 96.3% | 81.7% | 110% | 94.2% | 103% | 87.8%
8 | CCCS(=O)(=O)Nc1ccc(F)c(C(=O)c2c[nH]c3ncc(Cl)cc23)c1F + C[As](C)SC[C@H](NC(=O)CC[C@H](N)C(=O)O)C(=O)NCC(=O)O [Darinaparsin] (first compound 0.4 µM, partner dose 2 µM) | 55% | 77.1% | 77.9% | 94.6% | 83.7% | 86.2% | 83.9% | 93.5% | 111% | 61.8% | 63.5% | 106% | 98.6% | 59.5% | 84.8% | 56.1% | 82.8% | 66.5% | 109% | 49.9%
9 | O=C(/C=C/c1cccnc1)NCCCCC1CCN(C(=O)c2ccccc2)CC1 + N.N.[Cl][Pt][Cl] [cisplatin] (first compound 0.05 µM, partner dose 8 µM) | 2.53% | 34.2% | 14.4% | 52.5% | 25.7% | 21.4% | 21.4% | 92% | 95.6% | 11.8% | 83.2% | 18.4% | 102% | 109% | 94.2% | 62.3% | 95.9% | 67% | 117% | 114%
10 | Cc1cc(SCc2sc(-c3ccc(C(F)(F)F)c(F)c3)nc2C)ccc1OCC(=O)O + CC(C)CCN1c2nc(Nc3cc(F)c(O)c(F)c3)ncc2N(C)C(=O)C1C [BID1870] (first compound 10 µM, partner dose 1 µM) | 69.7% | 89.2% | 78.5% | 89.5% | 100% | 80.1% | 106% | 85.3% | 95.1% | 76% | 71.2% | 82.5% | 84.9% | 59.8% | 76.3% | 102% | 101% | 85.9% | 91.1% | 66.6%
11 | COc1cc(Nc2ncc(F)c(Nc3ccc4c(n3)NC(=O)C(C)(C)O4)n2)cc(OC)c1OC [Tamatinib] + O=C(Oc1ccc([N+](=O)[O-])cc1)N1CCC(C(O)(c2ccc3c(c2)OCO3)c2ccc3c(c2)OCO3)CC1 [JZL184] (first compound 2 µM, partner dose 5 µM) | 72.9% | 82.1% | 65.8% | 81.1% | 44.8% | 73.9% | 52.4% | 77.1% | 33.2% | 70.3% | 70.8% | 71.5% | 79.2% | 57.4% | 83.9% | 94.6% | 68.4% | 60.4% | 29.5% | 58.7%
12 | N#CC[C@H](C1CCCC1)n1cc(-c2ncnc3[nH]ccc23)cn1 [ruxolitinib] + Cn1cc(C2=C(c3cn(C4CCN(Cc5ccccn5)CC4)c4ccccc34)C(=O)NC2=O)c2ccccc21 [Enzastaurin] (first compound 5 µM, partner dose 4 µM) | 80.3% | 104% | 89.6% | 104% | 170% | 90.7% | 101% | 90.9% | 93.8% | 388% | 116% | 101% | 128% | 103% | 69.6% | 93.2% | 129% | 53.7% | 81.6% | 98.8%
13 | O=C(Nc1cccc(Cl)c1)Nc1ncc(CCNc2ncnc3ccsc23)s1 + Cc1cc(SCc2sc(-c3ccc(C(F)(F)F)c(F)c3)nc2C)ccc1OCC(=O)O [GW0742] (first compound 0.004 µM, partner dose 10 µM) | 70.1% | 61.7% | 62.3% | 70.7% | 84.1% | 65.6% | 44.9% | 69.8% | 47% | 76.9% | 32.3% | 80.1% | 98.6% | 94.9% | 73.4% | 87% | 53.1% | 41.7% | 66% | 72.8%
14 | Cn1sc(=O)n(Cc2ccccc2)c1=O + N.N.[Cl][Pt][Cl] [cisplatin] (first compound 2 µM, partner dose 8 µM) | 95.3% | 92% | 83.7% | 87.3% | 47.5% | 91.6% | 91.6% | 110% | 66.1% | 75.9% | 58.3% | 76.2% | 86.7% | 105% | 76.2% | 94.1% | 84% | 82.3% | 92.6% | 76.4%
15 | CC1(C)NC(=O)N(c2ccc([N+](=O)[O-])c(C(F)(F)F)c2)C1=O [nilutamide] + O=C(Oc1ccc([N+](=O)[O-])cc1)N1CCC(C(O)(c2ccc3c(c2)OCO3)c2ccc3c(c2)OCO3)CC1 [JZL184] (first compound 5 µM, partner dose 5 µM) | 115% | 99.1% | 115% | 118% | 94.9% | 119% | 105% | 104% | 151% | 125% | 127% | 102% | 98% | 106% | 96.8% | 107% | 113% | 116% | 130% | 96.2%
16 | Nc1cccc2c1CN(C1CCC(=O)NC1=O)C2=O (stereo not given) [lenalidomide] + O=C(Oc1ccc([N+](=O)[O-])cc1)N1CCC(C(O)(c2ccc3c(c2)OCO3)c2ccc3c(c2)OCO3)CC1 [JZL184] (first compound 5 µM, partner dose 5 µM) | 109% | 102% | 111% | 132% | 105% | 92.6% | 108% | 87.9% | 74.8% | 107% | 110% | 95.6% | 91% | 75.2% | 97.9% | 56.3% | 95.2% | 79.5% | 83.8% | 66.2%
17 | CC(C)(C)c1cnc(CSc2cnc(NC(=O)C3CCNCC3)s2)o1 + O=C(Oc1ccc([N+](=O)[O-])cc1)N1CCC(C(O)(c2ccc3c(c2)OCO3)c2ccc3c(c2)OCO3)CC1 [JZL184] (first compound 0.05 µM, partner dose 5 µM) | 77.8% | 93.5% | 108% | 77.9% | 70.9% | 89.1% | 74.5% | 72.6% | 21.6% | 64.7% | 49.7% | 62.6% | 73.9% | 72.2% | 76.9% | 50.9% | 62.9% | 55% | 71.1% | 78.8%
